Test results from PMC4336329 (PLoS ONE, 2015).
In all, about 310,000 compounds went through this assay and about 14,000 (4.5%) showed an effect of 50% or more. Effects have a minus sign here. The list shows a part of the results.

What follows are molecules tested against human ether-à-go-go-related gene (hERG) potassium channel (human, UniProt Q12809) (assay: primary screen, population patch clamp on CHO cells stably expressing hERG).
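Note: peak tail current of the secondary pulse compared with the same well before compound.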

human ether-à-go-go-related gene (hERG) potassium channel, sequence (Q12809 whole entry, looked up): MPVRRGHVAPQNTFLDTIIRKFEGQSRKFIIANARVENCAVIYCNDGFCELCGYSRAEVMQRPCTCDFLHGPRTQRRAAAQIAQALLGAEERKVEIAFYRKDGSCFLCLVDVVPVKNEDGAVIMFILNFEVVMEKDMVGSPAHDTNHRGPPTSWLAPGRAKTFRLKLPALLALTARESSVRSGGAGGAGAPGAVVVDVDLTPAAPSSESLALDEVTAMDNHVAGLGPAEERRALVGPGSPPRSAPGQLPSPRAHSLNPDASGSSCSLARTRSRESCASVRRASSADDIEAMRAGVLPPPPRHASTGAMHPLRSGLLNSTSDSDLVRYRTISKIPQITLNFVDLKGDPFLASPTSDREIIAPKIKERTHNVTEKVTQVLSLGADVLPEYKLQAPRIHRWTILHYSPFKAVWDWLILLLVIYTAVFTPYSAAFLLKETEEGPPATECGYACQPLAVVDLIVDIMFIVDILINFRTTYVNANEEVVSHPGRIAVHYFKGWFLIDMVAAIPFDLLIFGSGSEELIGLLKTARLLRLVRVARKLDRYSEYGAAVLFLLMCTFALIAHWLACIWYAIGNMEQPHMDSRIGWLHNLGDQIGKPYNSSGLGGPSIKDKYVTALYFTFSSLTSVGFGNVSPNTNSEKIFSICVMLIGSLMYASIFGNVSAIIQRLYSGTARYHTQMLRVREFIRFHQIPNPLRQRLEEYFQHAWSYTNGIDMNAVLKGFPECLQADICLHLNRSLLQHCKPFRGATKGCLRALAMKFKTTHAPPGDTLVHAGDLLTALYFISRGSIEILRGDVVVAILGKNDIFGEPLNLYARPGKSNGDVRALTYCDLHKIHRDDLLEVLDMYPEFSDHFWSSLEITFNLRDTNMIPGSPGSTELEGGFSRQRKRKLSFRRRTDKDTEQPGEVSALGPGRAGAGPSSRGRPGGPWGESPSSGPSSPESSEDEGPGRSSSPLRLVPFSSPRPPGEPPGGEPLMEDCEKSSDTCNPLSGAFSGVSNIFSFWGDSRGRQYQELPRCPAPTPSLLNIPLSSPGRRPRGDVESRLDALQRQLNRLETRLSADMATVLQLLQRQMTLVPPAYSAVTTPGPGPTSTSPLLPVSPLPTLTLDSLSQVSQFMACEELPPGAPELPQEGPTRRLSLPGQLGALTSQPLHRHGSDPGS

SMILES | hERG current change (%, negative = inhibition) at 10uM
CCCC(=O)Nc1ccc(S(=O)(=O)Nc2cc(OC)nc(OC)n2)cc1 | 8.83%
CCC(=O)N1CC2(C)CN(C(=O)CC)CC(C)(C1)C2 | 3.98%
Cc1ccccc1NC1=C/C(=N\S(=O)(=O)c2ccc(C(=O)O)cc2)c2ccccc2C1=O | 2.23%
Cc1ccc(-c2c[n+](Cc3cccc(Cl)c3)c3n2CCC3)cc1.[Br-] | -57.7%
COc1ccc(OCC(O)CNC(=O)Nc2cc(C)cc(C)c2)cc1 (stereo not drawn) | 0.613%
COc1ccc(CN2C(=O)[C@@H]3C(c4ccccc4Cl)=NO[C@@H]3C2=O)cc1 | -5.69%
Nc1ccc2nc(CCCCCCc3nc4ccc(N)cc4[nH]3)[nH]c2c1 | 19.6%
CCc1cccc(N(C(=O)c2csnn2)C(C(=O)NC2CCCC2)c2cccnc2)c1 (stereo not drawn) | -7.88%
CC1CCCCN1C(=O)CSc1nnc2c(n1)[nH]c1ccccc12 (stereo not drawn) | -4.49%
CCOC(=O)c1sc(Nc2cccc(C)c2C)nc1C | -21.7%
Cc1c(NC(=O)CN2C(=O)NC3(CCC(C)CC3)C2=O)c(=O)n(-c2ccccc2)n1C (stereo not drawn) | 19.4%
O=C(Nc1ccccc1-c1ccccc1)c1ccc(Cl)c([N+](=O)[O-])c1 | 14.1%
Cc1ccccc1NC(=O)c1cc(=O)c2ccccc2o1 | -5.49%
CNC(=O)C(=O)NCCC1CCCCN1S(=O)(=O)c1cccs1 (stereo not drawn) | 8.93%
N#CC(c1cccc(Cl)c1)c1ncc(C(F)(F)F)cc1Cl (stereo not drawn) | 1.1%
COc1ccc(NC(=O)CN2C(=O)NC(C)(c3ccc(C)cc3)C2=O)cn1 (stereo not drawn) | -0.713%
N#Cc1ccccc1COC(=O)CCCC1=NS(=O)(=O)c2ccccc2N1 | -6.01%
O=C1CCC(c2ccccc2)=NN1 | 9.05%
Cc1cc(NC(=O)CSc2nnc(Cc3ccccc3)n2C)no1 | -7.24%

SMILES | hERG current change (%, negative = inhibition) at 10uM
COc1ccccc1C(=O)NC(=S)N1CCCc2ccccc21 | -31.1%
COc1cc(C2NC(=O)CCC2[N+](=O)[O-])cc(Br)c1OC (stereo not drawn) | 13%
C=CCOc1ccc(CN(C)CC(O)COc2cccc3ccccc23)cc1 (stereo not drawn) | -23.2%
CCC(CO)N=CC1=C(O)CC(C)(C)CC1=O (stereo not drawn) | 14.8%
COCCNC(=O)C(c1ccc(Cl)cc1)N(C(=O)Cn1nnc2ccccc21)c1cccnc1 (stereo not drawn) | 4.57%
O=C(O)CCC(=O)c1ccc2c(c1)CCCC2 | 10.8%
COc1ccccc1NC(=O)CSc1nnc(CC(=O)Nc2cccc(C(F)(F)F)c2)n1C | 3.57%
CCNC(=O)CC1C(=O)N(c2ccccc2)C(=O)N1CCc1ccc(OC)c(OC)c1 (stereo not drawn) | 17.5%
Cc1noc(NS(=O)(=O)c2ccc(N3C(=O)c4ccccc4C3=O)cc2)c1C | 14.5%
Cc1cc([N+](=O)[O-])nn1CC(=O)NNC(=S)Nc1ccc([N+](=O)[O-])cc1 | 11%
CC(=O)Nc1ccc(C(=O)Nc2ccc3c(c2)OCO3)cc1 | -4.62%
Cc1ccc2nc(-c3ccc(NC(=S)NC(=O)C(C)C)cc3)sc2c1 | 2.52%
O=C1C=C(NCCN2CCOCC2)C(=O)c2cnccc21 | 4.18%
CCCOc1ccc(NC(=O)CC2C(=O)N(c3ccc(OCC)cc3)C(=S)N2C2CC2)cc1 (stereo not drawn) | -3.76%
Cc1nn(CCOc2ccccc2Cl)c(C)c1[N+](=O)[O-] | 14.1%
Cc1ccc(-n2nc3c(c2NC(=O)CCC2CCCCC2)CS(=O)C3)cc1 (stereo not drawn) | -18.3%
CCOc1ccccc1NC(=O)C(NC(=O)C1CCC(C)CC1)C(C)C (stereo not drawn) | -8.76%
Oc1cccc(/C=N/n2c(C3CCCCC3)n[nH]c2=S)c1 | 14.1%
C#CC(C)(CC)NC(=O)c1cc2nc(C3CC3)cc(C(F)(F)F)n2n1 (stereo not drawn) | -3.12%

SMILES | hERG current change (%, negative = inhibition) at 10uM
O=C(CSc1nc2nc3c(cc2c(=O)n1-c1ccccc1)CCCC3)Nc1cccc2ccccc12 | -20.7%
COC(=O)c1cc2c(ccn2-c2ccc(F)cc2)n1C(C)C | -8.54%
Cc1cc(C(=O)Nc2nncs2)oc1C | 10.5%
CC(=O)c1cccc(NC2=NCC(C)S2)c1 (stereo not drawn) | 3.47%
N#C/C(=C(/O)CN1C(=O)c2ccccc2C1=O)c1nc2ccccc2[nH]1 | 11.6%
CCn1c(SCC(=O)Nc2ccc3c(c2)OCO3)nnc1C1CC1 | 2.87%
NNC(=O)CCCCCCCCCCOCCCCO | 6.09%
C[N+]1(CCOC(=O)C2(c3ccccc3)CCCC2)CCCCC1 | 4.33%
Cc1ccc(NC(=O)CCn2c(=S)oc3ccccc32)cc1 | 1.97%
COc1ccccc1NC(=O)Nc1nc(CC(=O)N2CCN(c3ccc(F)cc3)CC2)cs1 | 12.4%
Oc1ccc(Cn2ccnc2)c2cccnc12 | -10.6%
CC(C)(C)NC(=O)C(c1c[nH]c2ccccc12)N(C(=O)Cn1nnc(-c2ccc(F)cc2)n1)c1cccc(O)c1 (stereo not drawn) | -6.27%
Cc1cc(C)c(C#N)c(OCC(=O)c2ccccc2)n1 | -14.2%
O=C(CC1(O)C(=O)N(Cc2ccccc2)c2ccccc21)c1ccncc1 (stereo not drawn) | 9.19%
CCN(CC)S(=O)(=O)c1ccc(N(C)CCc2ccc(OC)c(OC)c2)nc1 | -0.553%
COC(=O)CC1COc2ccccc2N1S(=O)(=O)c1ccc(OC)cc1 (stereo not drawn) | -3.22%
Brc1ccc(-c2ncc(-c3ccccc3)cn2)cc1 | 12.8%
CC1(C)N=C(SCC(=O)Nc2ccc(Cl)cc2)C(c2ccc(Cl)cc2)=N1 | -0.481%
CCCOC(=O)c1c(-c2ccc(OC)cc2)oc2ccc(-c3ccc(OC)nc3)cc12 | 22.4%
